Part of at least one peptide drawing is inferred or uncertain, most often the ends. Starred links: 1 amine or outer side, 2 acyl side, 3 side chain; linkers in the order of their positions; H or OH if unused. Non-standard residues stand in square brackets, D forms with d. Residues, ends and D or L forms follow the SMILES beside them. X5 = O=C([C@H](Cc1ccc(CN2CCCC2)cc1)N[*:1])[*:2]; X7 = CCN(CC)Cc1ccc(C[C@H](N[*:1])C(=O)[*:2])cc1; X6 = CN(C)Cc1ccc(C[C@@H](N[*:1])C(=O)[*:2])cc1; X1 = CN(C)Cc1ccc(C[C@H](N[*:1])C(=O)[*:2])cc1; dPhe(4-Cl) = N[C@H](Cc1ccc(Cl)cc1)C(=O)O; d2Nal = N[C@H](Cc1ccc2ccccc2c1)C(=O)O; d3Pal = N[C@H](Cc1cccnc1)C(=O)O
What was measured:
[1] = test system: rat ovulation; test: Corbin's rat antiovulation method (antiovulatory activity, AOA); format: in vivo; conditions: for % AOA/μg 0.5: 0.5 μg
Experimental: Corbin's rat antiovulation method was used in the present invention. Healthy, adult, female SD rats (BW 200-250 g) were used in this experiment. All animals were maintained at 22°-24° C. and on a 14 hr./10 hr. (light/dark) schedule. They were given standard food and water ad libitum. Only those rats showing at least two consecutive 4-day estrous cycles in vaginal smear examination could be used in this experiment. The rats were given peptides (LHRH antagonists) at noon of proestrus with different doses in saline solution. The rats were sacrificed the next day, and both portions of their oviducts were examined using a dissecting microscope in order to determine the ovum number. The rats were divided into several groups according to the dosing, and each group consisted of about 10 rats. The control group, which was given an equivalent amount of saline, consisted of 9-10 rats. […] Evaluation of Histamine Releasing Activity

[2] = test system: mast cells; format: cell-based; conditions: in vitro histamine release, rat peritoneal mast cells
Experimental: The healthy, adult, male SD rats (BW 200-250 g) used in this experiment were housed in the same conditions as for the adult, female SD rats above. After anesthetizing with CO2, the peritoneal cavity was washed with 50 ml of PIPES AC medium containing 20 units of heparin. Following centrifugation at 200×g for 8 min. at 4° C., the cells were washed again and resuspended to a concentration of 8-to-24×10^5 total leukocytes/ml in […]. This suspension contained approximately 5-10% mast cells. Washed cells were used immediately after collection and were prewarmed for 5 min. at 37° C. prior to pipetting 0.3 ml aliquots into polystyrene tubes containing 0.3 ml of diluted peptide. The mixtures were incubated for 15 min. at 37° C., and the reaction was stopped by centrifugation at 400×g for 15 min. at 4° C. The supernatants were assayed for histamine content by manual fluorometric assay method after successful extraction with n-butanol and n-heptane. The histamine content can be obtained from the histamine standard curve (see below). The percentage of histamine release can be calculated from the following equation: [formula] where E is the fluorometric reading of the experimental sample, B is the fluorometric reading of samples with cells and buffer only, and C is the fluorometric reading of "complete" samples (cells treated with HCIO4). The standard curve can be obtained by plotting the OD values on a fluorometer at 350 nm/450 nm (activation/fluorescent) against the concentrations of serially diluted solutions of accurately weighed histamine hydrochloride. The relative parameter (r) of the histamine standard curve can be 0.9998, and the lowest detectable concentration of histamine is 0.5 ng/ml. The ED50 value of a peptide can be determined from the dose response curves obtained by plotting the histamine release versus the peptide concentration on semilogarithmic paper. All peptide samples should be tested with mast cells from a minimum of 3 different rats.

[3] = in saline, at noon of proestrus, female SD rats

## CC(=O)N[C@H](Cc1ccc2ccccc2c1)C(=O)N[C@H](Cc1ccc(Cl)cc1)C(=O)N[C@H](Cc1ccc(O)cc1)C(=O)N[C@@H](CO)C(=O)N[C@@H](CCCCN)C(=O)N[C@H](Cc1cccnc1)C(=O)N[C@@H](CC(C)C)C(=O)N[C@@H](CCCNC(=N)N)C(=O)N1CCC[C@H]1C(=O)N[C@H](C)C(N)=O [Compound 4] (Ac-[d2Nal][dPhe(4-Cl)][dY]SK[d3Pal]LRP[dA]-NH2)
[1]; 1.0 μg, in saline, at noon of proestrus, female SD rats
  % AOA/μg 1.0: 40%

## CC(=O)N[C@H](Cc1ccc2ccccc2c1)C(=O)N[C@H](Cc1ccc(Cl)cc1)C(=O)N[C@H](Cc1cccnc1)C(=O)N[C@@H](CO)C(=O)N[C@@H](Cc1ccc(CN(C)C)cc1)C(=O)N[C@H](Cc1cccnc1)C(=O)N[C@@H](CC(C)C)C(=O)N[C@@H](CCCNC(=N)N)C(=O)N1CCC[C@H]1C(=O)N[C@H](C)C(N)=O [Compound 6] (Ac-[d2Nal][dPhe(4-Cl)][d3Pal]S[X1][d3Pal]LRP[dA]-NH2)
[1]; [3]
  % AOA/μg 0.5: 29%
[2]
  HRA (μg/ml) ED50 ± SEM: 24.8 µg/mL

## CCN(CC)Cc1ccc(C[C@H](NC(=O)[C@H](CO)NC(=O)[C@@H](Cc2cccnc2)NC(=O)[C@@H](Cc2ccc(Cl)cc2)NC(=O)[C@@H](Cc2ccc3ccccc3c2)NC(C)=O)C(=O)N[C@H](Cc2cccnc2)C(=O)N[C@@H](CC(C)C)C(=O)N[C@@H](CCCNC(=N)N)C(=O)N2CCC[C@H]2C(=O)N[C@H](C)C(N)=O)cc1 [Compound 7] (Ac-[d2Nal][dPhe(4-Cl)][d3Pal]S[X7][d3Pal]LRP[dA]-NH2)
[1]; [3]
  % AOA/μg 0.5: 43%
[2]
  HRA (μg/ml) ED50 ± SEM: 12.0 µg/mL

## CC(=O)N[C@H](Cc1ccc2ccccc2c1)C(=O)N[C@H](Cc1ccc(Cl)cc1)C(=O)N[C@H](Cc1cccnc1)C(=O)N[C@@H](CO)C(=O)N[C@H](Cc1ccc(CN(C)C)cc1)C(=O)N[C@H](Cc1cccnc1)C(=O)N[C@@H](CC(C)C)C(=O)N[C@@H](CCCNC(=N)N)C(=O)N1CCC[C@H]1C(=O)N[C@H](C)C(N)=O [Compound 10] (Ac-[d2Nal][dPhe(4-Cl)][d3Pal]S[X6][d3Pal]LRP[dA]-NH2)
[1]; [3]
  % AOA/μg 0.5: 12.5%
[2]
  HRA (μg/ml) ED50 ± SEM: 18.3 µg/mL

## CC(=O)N[C@H](Cc1ccc2ccccc2c1)C(=O)N[C@H](Cc1ccc(Cl)cc1)C(=O)N[C@H](Cc1cccnc1)C(=O)N[C@@H](CO)C(=O)N[C@@H](Cc1ccc(CN2CCCC2)cc1)C(=O)N[C@H](Cc1cccnc1)C(=O)N[C@@H](CC(C)C)C(=O)N[C@@H](CCCNC(=N)N)C(=O)N1CCC[C@H]1C(=O)N[C@H](C)C(N)=O [Compound 11] (Ac-[d2Nal][dPhe(4-Cl)][d3Pal]S[X5][d3Pal]LRP[dA]-NH2)
[1]; [3]
  % AOA/μg 0.5: 14%
[2]
  HRA (μg/ml) ED50 ± SEM: 36.8 µg/mL

## CC(=O)N[C@H](Cc1ccc2ccccc2c1)C(=O)N[C@H](Cc1ccc(Cl)cc1)C(=O)N[C@H](Cc1cccnc1)C(=O)N[C@@H](CO)C(=O)N[C@@H](Cc1ccc(O)cc1)C(=O)N[C@H](CCCNC(=N)N)C(=O)N[C@@H](CC(C)C)C(=O)N[C@@H](CCCNC(=N)N)C(=O)N1CCC[C@H]1C(=O)N[C@H](C)C(N)=O [II, NAc-D2Nal^1 -DpClPhe^2 -D3Pal^3 -Ser^4 -Tyr^5 -DArg^6 -Leu^7 -Arg^8 -Pro^9 -DAla^10 -NH2] (Ac-[d2Nal][dPhe(4-Cl)][d3Pal]SY[dR]LRP[dA]-NH2)
[1]; 0.25 μg in corn oil
  AOA: 57%
[1]; 0.5 μg in corn oil
  AOA: 100%

## CC(=O)N[C@H](Cc1ccc2ccccc2c1)C(=O)N[C@H](Cc1ccc(Cl)cc1)C(=O)N[C@H](Cc1cccnc1)C(=O)N[C@@H](CO)C(=O)N[C@@H](Cc1ccc(O)cc1)C(=O)N[C@H](Cc1cccnc1)C(=O)N[C@@H](CC(C)C)C(=O)N[C@@H](CCCNC(=N)N)C(=O)N1CCC[C@H]1C(=O)N[C@H](C)C(N)=O [III, NAc-D2Nal^1 -DpClPhe^2 -D3Pal^3 -Ser^4 -Tyr^5 -D3Pal^6 -Leu^7 -Arg^8 -Pro^9 -DAla^10 -NH2] (Ac-[d2Nal][dPhe(4-Cl)][d3Pal]SY[d3Pal]LRP[dA]-NH2)
[1]; 1 μg in corn oil
  AOA: 83%
[1]; 3 μg in corn oil
  AOA: 100%
